# Results published in PubChem BioAssay AID1768 (National Center for Advancing Translational Sciences (NCATS), 2009).
# “And” between values parts separate entries of the source, which are not always exact repeats. Identical values can stand only once. The whole screen tested about 270,000 compounds, of which about 620 (0.23%) were called active. Inconclusive means that the source gave no clear call. Such entries were picked first, then a sample of the others. The call rests on the fitted dose curve; in most records, active means well fitted inhibition curve with a large enough effect in the polarisation, with a control signal flat (not every such curve was filed as active); inconclusive means small, poorly fitted or top-dose-only effect, or effect the other way, or a change in a side signal; inactive means no such curve, though single readings can be large or run the other way; the % refers to the polarisation. Potencies beside an inconclusive call are fits to weak or partial responses and may not hold up. A note “side channel” means that the fit belongs to a control or component signal, not to the main read-out.
# Target: Menin (Homo sapiens) (UniProt O00255)
# Test: qHTS Assay for Inhibitors Targeting the Menin-MLL Interaction in MLL Related Leukemias: Competition With Texas Red Labeled MLL-derived Mutant Peptide
# Details: fluorescence polarization; series mostly up to 61.6 µM
# Potency means the concentration at half of the fitted maximal effect; tags describe the fitted curve by direction and shape or compound fluorescence and quenching.
# UniProt O00255, sequence (O00255 whole entry, looked up): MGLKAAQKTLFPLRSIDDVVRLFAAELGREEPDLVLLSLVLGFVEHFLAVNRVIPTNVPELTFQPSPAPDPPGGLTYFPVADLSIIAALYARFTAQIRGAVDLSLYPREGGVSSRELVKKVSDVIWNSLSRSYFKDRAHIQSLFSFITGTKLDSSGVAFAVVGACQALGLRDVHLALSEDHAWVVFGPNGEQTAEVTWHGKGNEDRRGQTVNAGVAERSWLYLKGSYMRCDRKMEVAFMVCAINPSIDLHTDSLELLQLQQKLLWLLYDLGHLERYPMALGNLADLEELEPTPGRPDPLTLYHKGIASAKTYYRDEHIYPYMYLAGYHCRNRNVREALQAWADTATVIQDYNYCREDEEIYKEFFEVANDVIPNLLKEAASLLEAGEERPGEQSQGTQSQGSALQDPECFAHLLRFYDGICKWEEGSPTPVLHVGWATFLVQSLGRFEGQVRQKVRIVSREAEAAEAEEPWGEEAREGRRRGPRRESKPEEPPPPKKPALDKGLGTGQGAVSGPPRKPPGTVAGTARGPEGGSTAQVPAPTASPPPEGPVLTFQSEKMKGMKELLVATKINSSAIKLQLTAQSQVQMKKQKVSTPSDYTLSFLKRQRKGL
row,Structure (SMILES),Potency
1,O=C(Nc1nnc(-c2ccccc2)s1)c1cccc(S(=O)(=O)N2CCOCC2)c1,"inconclusive: 10 µM [quencher, side channel, partial curve]"
2,Nc1[nH]nc2nc(-c3ccccc3)[nH]c(=O)c12,"inconclusive: 28.2 µM [quencher, side channel, single point]"
3,CC(C)C(NC(=O)c1ccccc1F)C(=O)NCc1ccc(F)cc1 (stereo not given),"inconclusive: 35.5 µM [quencher, side channel, single point]"
4,CC(C)CN(C(=O)c1cccc([N+](=O)[O-])c1)c1c(N)n(CC(C)C)c(=O)[nH]c1=O,"inconclusive: 0.316 µM [inhibitor, full curve, poor fit]"
5,Cc1nn(Cc2cccc(C(=O)NC3CCCCC3)c2)c(C)c1Cl,"inconclusive: 5.62 µM [inhibitor, full curve, poor fit]"
6,CC1CCCN(C(=O)C(C)Nc2cc(Cl)ccc2N2CCOCC2)C1 (stereo not given),"inconclusive: 25.1 µM [fluorescent, side channel, single point]"
7,CCCCc1cc(=O)oc2cc(C)cc(OCC(=O)N3CCC(C(=O)O)CC3)c12,"inconclusive: 20 µM [quencher, side channel, partial curve]"
8,O=C(CCN1C(=O)/C(=C/c2cccc(Br)c2)SC1=S)NNC(=O)c1cccnc1,"inconclusive: 10 µM [quencher, side channel, partial curve]"
9,CC(C)(C)NC(=O)NC(=O)CN1CCCc2ccccc21,inactive
10,COc1ccc(NC(=O)/C(C#N)=C\C=C\c2ccco2)cc1,"inconclusive: 25.1 µM [quencher, side channel, single point]"
11,Cc1cc(C)n2nc(C(=O)Nc3ccc4c(c3)CCC4)nc2n1,"inconclusive: 25.1 µM [fluorescent, side channel, single point]"
12,N=C1S/C(=C\c2ccccc2F)C(=O)N1c1ccc(F)cc1,"inconclusive: 7.08 µM [inhibitor, full curve, poor fit]"
13,COC(=O)c1sccc1NC(=O)Nc1ccccc1OC,"inconclusive: 22.4 µM [quencher, side channel, single point]"
14,Cc1ccc(-c2cc(C(=O)O)c3cc(Br)ccc3n2)s1,"inconclusive: 12.6 µM [quencher, side channel, partial curve] and inconclusive: 25.1 µM [quencher, partial curve]"
15,Cc1noc2ncnc(Oc3cc(Cl)ccc3Cl)c12,"inconclusive: 25.1 µM [fluorescent, single point]"
